Measured values as given in the supplement of paper PMC4604168 (melanoma cell lines).
Some of the results follow. Many values rest on one well or one pass, so single values are uncertain.

How the values were obtained:
Test in all cases: cell count relative to DMSO control; melanoma cells; higher = more viable cells
Settings in all cases: library dose: standard library concentration; 72 h
G361 = system: G361
IPC-298 = system: IPC-298
IST-MEL1 = system: IST-MEL1
LB2518-MEL = system: LB2518-MEL
LOXIMVI = system: LOXIMVI
MEL-HO = system: MEL-HO
MZ2-MEL = system: MZ2-MEL
MeWo = system: MeWo
RPMI7951 = system: RPMI7951
RVH-421 = system: RVH-421
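Further: cells treated in 1,536-well plates, then fixed and DAPI-stained, with nuclei counted from automated high-throughput microscope images.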

Structure (SMILES) | cell count (G361) | cell count (IPC-298) | cell count (IST-MEL1) | cell count (LB2518-MEL) | cell count (LOXIMVI) | cell count (MEL-HO) | cell count (MZ2-MEL) | cell count (MeWo) | cell count (RPMI7951) | cell count (RVH-421)
C=CCn1c(=O)c2cnc(Nc3ccc(N4CCN(C)CC4)cc3)nc2n1-c1cccc(C(C)(C)O)n1 + Oc1nc(-c2ccc(C(F)(F)F)cc2)nc2c1CSCC2 [XAV939] (first compound 0.1 µM, partner dose 10 µM) | 70% | 78.4% | 85% | 73.1% | 116% | 91.5% | 88.3% | 71.6% | 46.4% | 85.2%
OCCn1cc(-c2cnc3nnn(Cc4ccc5ncccc5c4)c3n2)cn1 + Cc1cc([N+](=O)[O-])ccc1NS(=O)(=O)c1cc(Cl)ccc1Cl [FH535] (first compound 5 µM, partner dose 5 µM) | 59.1% | 56.1% | 49.3% | 140% | 72% | 59.7% | 84.2% | 76.4% | 74.1% | 78.9%
OCCn1cc(-c2cnc3nnn(Cc4ccc5ncccc5c4)c3n2)cn1 + O=S(=O)(c1ccccc1)N(CC(F)(F)F)c1ccc(C(O)(C(F)(F)F)C(F)(F)F)cc1 [T0901317] (first compound 5 µM, partner dose 7 µM) | 74.2% | 81.9% | 98.3% | 141% | 101% | 85.6% | 101% | 98.3% | 121% | 106%
C[C@]1(c2nc3c(C(N)=O)cccc3[nH]2)CCCN1 [Veliparib] + Cn1cc(/C=C2\C(=O)Nc3cccnc32)c2ccccc21 [GW441756] (first compound 7 µM, partner dose 2 µM) | 81.3% | 87.9% | 88.2% | 118% | 86.6% | 91% | 86.6% | 109% | 84% | 84.8%
NCC(=O)Nc1ccc(-n2nc(C(F)(F)F)cc2-c2ccc3c(ccc4ccccc43)c2)cc1 + O=c1cc(-c2cccc3c2Sc2ccccc2S3)oc(N2CCOCC2)c1 [KU55933] (first compound 5 µM, partner dose 5 µM) | 57.3% | 50.3% | 85.1% | 91.2% | 43.3% | 65.4% | 69% | 80.1% | 78.6% | 81.3%
Cc1nc(Nc2ncc(C(=O)Nc3c(C)cccc3Cl)s2)cc(N2CCN(CCO)CC2)n1 [dasatanib] + O=C(CCCCCCC(=O)Nc1ccccc1)NO [vorinostat] (first compound 0.02 µM, partner dose 0.4 µM) | 43.9% | 91.8% | 59.1% | 70.2% | 15.5% | 75.5% | 65.7% | 66.3% | 23.3% | 51.3%
C[C@]1(c2nc3c(C(N)=O)cccc3[nH]2)CCCN1 [Veliparib] + COc1ccc(COc2ccc(Cc3cnc(N)nc3N)cc2OC)cc1 [GW2580] (first compound 7 µM, partner dose 5 µM) | 76.2% | 91.8% | 97.1% | 84.2% | 72.6% | 89.2% | 95.1% | 103% | 32.2% | 83.8%
Cc1nc(Nc2ncc(C(=O)Nc3c(C)cccc3Cl)s2)cc(N2CCN(CCO)CC2)n1 [dasatanib] + Cn1c(Nc2ccc(C(F)(F)F)cc2)nc2cc(Oc3ccnc(-c4ncc(C(F)(F)F)[nH]4)c3)ccc21 [CHIR265] (first compound 0.02 µM, partner dose 0.4 µM) | 19.8% | 33.6% | 46.6% | 31.9% | 18.3% | 42.9% | 35.2% | 62% | 19.9% | 43.8%
CO[C@@H]1[C@H](N(C)C(=O)c2ccccc2)C[C@H]2O[C@]1(C)n1c3ccccc3c3c4c(c5c6ccccc6n2c5c31)C(=O)NC4 [Midostaurin] + CN(C)S(=O)(=O)c1ccc2c(c1)/C(=C/c1cc3c([nH]1)CCCC3)C(=O)N2 [SU6656] (first compound 0.4 µM, partner dose 2 µM) | 31.9% | 37.2% | 49.4% | 64.4% | 56.5% | 58.6% | 54.1% | 48.7% | 42.3% | 101%
C=CCn1c(=O)c2cnc(Nc3ccc(N4CCN(C)CC4)cc3)nc2n1-c1cccc(C(C)(C)O)n1 + CC(C)(C)c1cnc(CSc2cnc(NC(=O)C3CCNCC3)s2)o1 [SNS-032] (first compound 0.1 µM, partner dose 0.05 µM) | 84.4% | 108% | 85.5% | 62.7% | 74.5% | 86.1% | 106% | 70.7% | 49.6% | 61.1%
C[C@]1(c2nc3c(C(N)=O)cccc3[nH]2)CCCN1 [Veliparib] + CCN(CC)CCCCNc1ncc2cc(-c3cc(OC)cc(OC)c3)c(NC(=O)NC(C)(C)C)nc2n1 [PD173074] (first compound 7 µM, partner dose 0.5 µM) | 85% | 88.2% | 120% | 85.7% | 94.3% | 101% | 103% | 86.2% | 147% | 91.9%
C=CCn1c(=O)c2cnc(Nc3ccc(N4CCN(C)CC4)cc3)nc2n1-c1cccc(C(C)(C)O)n1 + O=C(O)c1ccc(-c2c[nH]c3ncc(-c4ccccc4)cc23)cc1C1CCCC1 [GSK650394] (first compound 0.1 µM, partner dose 0.8 µM) | 67.6% | 82.4% | 82.2% | 79.8% | 71.1% | 66.7% | 103% | 73.4% | 87% | 86.7%
